Data reported in PubChem BioAssay AID720542 (National Center for Advancing Translational Sciences (NCATS), 2013).
In all, about 360,000 compounds went through this assay and about 740 (0.21%) were called active. The inconclusive results got no clear call from the source; some entries with a clear call stand among them for comparison. Calls follow the shape of the dose curve; as a rule, active = well fitted inhibition curve with a large enough effect; inconclusive = small, poorly fitted or top-dose-only effect; inactive = no such curve, though single readings can be large or run the other way. No potency is given beside an inconclusive call; the fits are too rough.

Each compound was assayed on Plasmodium falciparum AMA1 (3D7) - RON2 peptide interaction (assay: qHTS for Inhibitors of AMA1-RON; Towards Development of Antimalarial Drug Lead: Primary Screen). Conditions: AlphaScreen AMA1-biotinylated RON2 peptide binding; series mostly up to 58.2 µM.
Summary of the method: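 AMA1 (3D7) with his tag at 25 nM final met compounds first, then biotinylated RON2 peptide at 25 nM; detection used donor plus acceptor beads, 10 µg/mL apiece, read by AlphaScreen after 30 min at room temperature.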
Also: nearly all actives have a fitted effect of over 45% in size.
Potency is read from the fitted curve at half-maximal effect; tags tell the direction and shape of the fitted curve.

SMILES | Potency
COc1ccc(-c2ccc3[nH]c4c(c3c2)CCN2C(=O)[C@@H]([C@H](C)O)[C@@H](N(C)C(=O)Nc3ccccc3)C[C@@H]42)cc1 | inconclusive [inhibitor, single point]
CN(Cc1ccccc1)c1nc2c(c(=O)[nH]c(=O)n2C)n1CCSc1nc2ccccc2[nH]1 | inconclusive [inhibitor, single point]
O=C(c1ccccc1)c1ccc2nc(-c3ccco3)c(-c3ccco3)nc2c1 | inconclusive [inhibitor, partial curve]
O=C1NC(=O)C(CCc2ccncc2)(CCc2ccccn2)C(=O)N1c1ccc(Br)cc1 (centres undefined) | inconclusive [inhibitor, full curve, poor fit]
CN(C)/C=C(\C=O)c1ncc(C(F)(F)F)cc1Cl | inactive
CC1(C)OC(c2ccccc2)=C/C(=C/C=C2C(=O)c3ccccc3C2=O)O1 | inconclusive [inhibitor, full curve, poor fit]
Cc1ccc(C(=O)/C=C2\NCCNC2=O)cc1 | inactive
CCOC(=O)Cn1c(=O)c(-c2ccccc2NCc2ccccc2)nc2ccccc21 | inconclusive [inhibitor, full curve, poor fit]
COc1ccc(C2C(C(C)=O)=C(C)Nc3ncnn32)cc1 (centres undefined) | inactive
CC(=O)c1c(COC(=O)c2cccnc2)nc2ccccc2[n+]1[O-] | inactive
CN(c1ccccc1)c1nc(N)c([N+](=O)[O-])c(N2CCCCCC2)n1 | inconclusive [inhibitor, partial curve]
CCc1cc(OCCOCCN(C)C)ccc1Cl | inconclusive [inhibitor, partial curve]
CSC1=NN(c2ccccc2)CN(c2ccccc2)N1C | inconclusive [inhibitor, partial curve]
CCOC(=O)N1CCN(Cc2nc(C3CC3)no2)CC1 | inactive
COc1ccc(C(=O)NCc2cccnc2)cc1S(=O)(=O)N1CCCc2ccccc21 | inconclusive [inhibitor, single point]
COc1ccc2nc3ccccc3nc2c1N | inconclusive [inhibitor, single point]
COc1ccccc1N=Nc1nc(-c2ccccc2)c(-c2ccccc2)[nH]1 | active: 35.5 µM
CN(c1cccc(F)c1)c1cc2c(c3c1ccn3C)C1CCC2O1 (centres undefined) | inconclusive [inhibitor, partial curve]
Cc1c(C(=O)N2CCN(c3ccc(F)cc3)CC2)sc2ncnc(N3CCN(c4ccccn4)CC3)c12 | inconclusive [inhibitor, partial curve]
